Experimental data taken from article PMC4802085.
Results are given in words; binding and its absence hold for the method and conditions named. Binding seen in cells or lysates may run through a third protein. Some binding calls cover weakened binding; strength is not graded here.

By UniProt entry, the sequences of proteins in these tests, tags left out. Where a name states a change or a piece, a line headed by the entry shows the natural chain unless it says otherwise. Chains listed by the source or under a name are the forms on record and can include a tag or linker. Residues count along the entry.
FLAG-PGRMC1 wild-type (a.a.44–195) (O00264, residues 44-195): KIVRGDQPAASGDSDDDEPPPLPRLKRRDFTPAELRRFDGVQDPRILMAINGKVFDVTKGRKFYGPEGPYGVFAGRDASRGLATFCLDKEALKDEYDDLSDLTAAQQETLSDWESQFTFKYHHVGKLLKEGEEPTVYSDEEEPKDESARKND
FLAG-PGRMC1 Y113F mutant (a.a.44–195) (O00264, form named): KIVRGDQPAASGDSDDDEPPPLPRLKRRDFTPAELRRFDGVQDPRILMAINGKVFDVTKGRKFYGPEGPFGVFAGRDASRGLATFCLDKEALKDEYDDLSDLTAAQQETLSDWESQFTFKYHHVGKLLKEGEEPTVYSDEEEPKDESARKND

What was measured:
[1] = target: FLAG-PGRMC1 wild-type (a.a.44–195) (human) (UniProt O00264); assay: co-IP; in vitro binding assay as a18 with FLAG-PGRMC1 in apo form (no haemin); only the target purified
[2] = target: FLAG-PGRMC1 wild-type (a.a.44–195) (human) (UniProt O00264); assay: condition: only with 10 μmol l^−1 CORM3 under reducing conditions; co-IP; in vitro binding assay as a18, haem-bound FLAG-PGRMC1, reducing conditions (5 mmol l^−1 sodium dithionite), with 10 μmol l^−1 CORM3; only the target purified
[3] = target: FLAG-PGRMC1 Y113F mutant (a.a.44–195) (human) (UniProt O00264); assay: co-IP; in vitro binding assay: 1 μg CYP1A2 or CYP3A4 (microsomal formulation containing cytochrome b5 and cytochrome P450 reductase) with 10 μg FLAG-PGRMC1 (a.a.44–195) treated with 50 μmol l^−1 haemin, anti-FLAG (M2) agarose; 20 mmol l^−1 HEPES-NaOH (pH 7.9), 100 mmol l^−1 NaCl, 0.2 mmol l^−1 EDTA, 10% glycerol, 0.1% NP40, room temperature; only the target purified
[4] = target: FLAG-PGRMC1 wild-type (a.a.44–195) (human) (UniProt O00264); assay: as above

binding [2]: no binding
binding [3]: no binding
binding [4]: binds
B1: Recombinant CYP1A2 (enzyme, UniProt P05177 1-516)
chain: MALSQSVPFSATELLLASAIFCLVFWVLKGLRPRVPKGLKSPPEPWGWPLLGHVLTLGKNPHLALSRMSQRYGDVLQIRIGSTPVLVLSRLDTIRQALVRQGDDFKGRPDLYTSTLITDGQSLTFSTDSGPVWAARRRLAQNALNTFSIASDPASSSSCYLEEHVSKEAKALISRLQELMAGPGHFDPYNQVVVSVANVIGAMCFGQHFPESSDEMLSLVKNTHEFVETASSGNPLDFFPILRYLPNPALQRFKAFNQRFLWFLQKTVQEHYQDFDKNSVRDITGALFKHSKKGPRASGNLIPQEKIVNLVNDIFGAGFDTVTTAISWSLMYLVTKPEIQRKIQKELDTVIGRERRPRLSDRPQLPYLEAFILETFRHSSFLPFTIPHSTTRDTTLNGFYIPKKCCVFVNQWQVNHDPELWEDPSEFRPERFLTADGTAINKPLSEKMMLFGMGKRRCIGEVLAKWEIFLFLAILLQQLEFSVPPGVKVDLTPIYGLTMKHARCEHVQARLRFSIN
binding [1]: no binding (condition: without haem (apo form))
